Assay results taken from PubChem BioAssay AID493168 (National Center for Advancing Translational Sciences (NCATS), 2011).
This list was built around the results that the source calls inconclusive (neither active nor inactive); the mix of calls is not that of the screen. Potencies of inconclusive entries are left out as doubtful fits. Active and inactive are the calls of the source. The call rests on the fitted dose curve; in most records, active means well fitted inhibition curve with a large enough effect; inconclusive means small, poorly fitted or top-dose-only effect, or effect the other way; inactive means flat fitted curve, though single readings scatter.
Further: nearly all actives have a fitted effect of over 55% in size.
Potency means the concentration at half of the fitted maximal effect; tags describe the fitted curve by direction and shape.

What follows are compounds tested against Ubiquitin carboxyl-terminal hydrolase 2 (Homo sapiens) (UniProt O75604) (assay: Confirmation Assay for Inhibitors of Ubiquitin-specific Protease USP2a Using CHOP2 as the Reporter). Conditions: USP2 core, Ub-CHOP2 coupled reporter fluorescence; series mostly up to 38.3 µM.
Chain of UniProt O75604 (O75604 whole entry, looked up): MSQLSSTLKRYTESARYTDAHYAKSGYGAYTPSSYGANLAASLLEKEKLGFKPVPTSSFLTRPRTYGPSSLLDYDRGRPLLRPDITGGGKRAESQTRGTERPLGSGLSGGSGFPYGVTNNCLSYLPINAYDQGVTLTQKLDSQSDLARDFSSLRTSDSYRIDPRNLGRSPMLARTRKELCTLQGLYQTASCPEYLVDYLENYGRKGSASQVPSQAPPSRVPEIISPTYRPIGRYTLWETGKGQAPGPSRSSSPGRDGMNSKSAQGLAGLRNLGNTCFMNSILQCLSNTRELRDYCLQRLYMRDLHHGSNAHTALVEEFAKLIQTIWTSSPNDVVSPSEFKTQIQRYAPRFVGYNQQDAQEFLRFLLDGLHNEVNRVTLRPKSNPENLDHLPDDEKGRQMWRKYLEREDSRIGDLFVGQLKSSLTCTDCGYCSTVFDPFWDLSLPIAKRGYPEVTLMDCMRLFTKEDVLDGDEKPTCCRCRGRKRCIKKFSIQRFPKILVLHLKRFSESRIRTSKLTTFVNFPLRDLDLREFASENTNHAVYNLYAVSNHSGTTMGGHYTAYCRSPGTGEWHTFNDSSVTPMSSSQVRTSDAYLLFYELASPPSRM
Procedure, shortened: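 USP2 core (10 nM final) was preincubated with compound for 30 min at RT in Tris-HCl pH 8.0, CaCl2, beta-mercaptoethanol, CHAPS. Ub-CHOP2 and reporter substrate (25 nM final each) were added, and fluorescence (Ex 485/Em 531 nm) was read after 60 min.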
In the case of `Cc1ccc(S(=O)(=O)N2[C@@H](c3ccc(Cl)cc3)C(C(=O)O)=CC[C@H]2c2ccc(C(C)C)cc2)cc1`, the Potency is reported as inconclusive [inhibitor, single point]. `Cc1ccc(NC(=O)COC(=O)c2ccc(NC(=O)CC#N)cc2)cc1S(=O)(=O)N1CCOCC1` was tested, and the Potency was inconclusive [inhibitor, single point]. `O=C(O)CN1C(=O)/C(=C/c2ccc(SCc3ccccc3)o2)SC1=S` was tested, and the Potency was inconclusive [inhibitor, partial curve, poor fit]. For `CCCCCCCCCCOC(=O)Cn1c(COc2ccc(OC)cc2)[n+](C)c2ccccc21`, the Potency was inconclusive [inhibitor, single point]. With `CC(C)C(=O)N=c1sc2cc(F)cc(F)c2n1C` the Potency was “inactive”. `CC(=O)c1c(N2CCCC2)[nH]c(-c2ccccc2)nc1=S` was tested, and the Potency was “inactive”. With `Cc1ccccc1[C@@H]1C(C#N)=C(N)S[C@H]1C(=O)c1ccccc1` the Potency was “inactive”. With `Cc1cc(N2CCC(C(=O)NC3CC3)CC2)nc(-c2ccccc2)n1` the Potency was “inactive”. For `Cc1cc(N)c2cc(NC(=O)/C=C/c3ccccc3Cl)ccc2n1`, the Potency was inconclusive [inhibitor, single point]. In the case of `COc1ccc(/C=C2\SC(=S)N(NS(=O)(=O)c3ccc(C)cc3)C2=O)c(OC)c1`, the Potency is reported as inconclusive [inhibitor, single point]. `Cc1ccc(C)c(OCC(=O)Nc2cc(NC(=O)COc3cc(C)ccc3C)cc(C(=O)O)c2)c1` was tested, and the Potency was “inactive”. With `O=C(N/N=C/c1ccc(-c2ccc(Cl)c(C(=O)O)c2)o1)c1cc2c(ccc3ccccc32)o1` the Potency was inconclusive [inhibitor, single point]. For `Oc1c(Cl)cc(Cl)c(Cl)c1Cc1c(O)c(Cl)cc(Cl)c1Cl`, the Potency was active: 5.21 µM. With `CCOC(=O)/C(C#N)=C(C)/C=C1\Sc2ccccc2N1CC` the Potency was inconclusive [activator, partial curve, poor fit]. With `CNc1cccccc1=S` the Potency was “inactive”. In the case of `C=CC#CC[N+]1(CC#Cc2ccccc2)CCOCC1`, the Potency is reported as active: 3.69 µM. With `Cn1nnnc1Sc1ncnc2scc(-c3ccc4c(c3)OCO4)c12` the Potency was “inactive”. For `Cc1cc(C)n2cc(CSc3nnnn3-c3ccccc3C)nc2n1`, the Potency was “inactive”. With `COC(=O)c1c(O)c2c([nH]c1=O)CCCC2` the Potency was “inactive”. In the case of `CC(C)c1ccc2c(c1)c(SC(C)(C)C)c(CC(C)(C)C(=O)O)n2Cc1ccc(Cl)cc1`, the Potency is reported as active: 6.56 µM. `O=C(Nn1c(SCc2ccc([N+](=O)[O-])cc2)nc2ccccc2c1=O)c1ccc(F)cc1` was tested, and the Potency was inconclusive [inhibitor, partial curve, poor fit]. For `N#Cc1c(SCC(=O)Nc2nc3ccccc3s2)sc2c(O)cc(=O)[nH]c12`, the Potency was inconclusive [inhibitor, single point]. `O=C(Nc1nc(-c2ccco2)c(-c2ccco2)s1)c1ccc(F)cc1F` was tested, and the Potency was inconclusive [inhibitor, partial curve, poor fit]. For `O=C(Nc1ccncc1)c1ccc(S(=O)(=O)Nc2ccccc2)cc1`, the Potency was active: 14.7 µM. In the case of `O=C1/C(=C/C=C/c2ccco2)SC(=S)N1NS(=O)(=O)c1ccccc1`, the Potency is reported as active: 8.26 µM. With `O=C(Nc1nc(-c2ccco2)c(-c2ccco2)s1)C1CC(=O)N(c2ccc3c(c2)OCCO3)C1` (centres undefined) the Potency was active: 10.4 µM. `O=C(C[n+]1ccc(C(=O)N/N=C/c2ccc(OCc3ccccc3)cc2)cc1)c1ccccc1` was tested, and the Potency was inconclusive [inhibitor, single point]. `NC(=O)c1c(NC(=O)CSc2nnc(-c3ccco3)n2-c2ccccc2)sc2c1CCC2` was tested, and the Potency was inconclusive [inhibitor, single point]. For `O=C1/C(=C/C=C/c2ccco2)SC(=S)N1c1ccc(O)cc1`, the Potency was active: 5.21 µM. In the case of `CCN=C1SC(C(=O)Nc2cccc(OCC)c2)CC(=O)N1CC` (centres undefined), the Potency is reported as “inactive”. With `S=c1[nH]nc(-c2cc(-c3ccccc3)n[nH]2)n1/N=C/c1ccc(Br)s1` the Potency was inconclusive [inhibitor, single point]. For `O=C(CCCN1C(=O)/C(=C\c2ccco2)SC1=S)Nc1ccc(O)cc1C(=O)O`, the Potency was inconclusive [inhibitor, single point]. `Cc1ccc(N=C2NC(=O)/C(=C/C=C/c3ccco3)S2)cc1` was tested, and the Potency was inconclusive [inhibitor, single point]. `Cc1ccc(C(=O)NCCCc2ccccc2)s1` was tested, and the Potency was “inactive”. In the case of `Cc1ccc(C)c(S(=O)(=O)N2CCN(C(=O)/C=C/c3ccco3)CC2)c1`, the Potency is reported as inconclusive [inhibitor, single point]. `Cc1c(C(=O)Nc2ccc3c4c(cccc24)CC3)cccc1[N+](=O)[O-]` was tested, and the Potency was “inactive”. In the case of `NC(=O)CC(NC(=O)Cc1ccc(Br)cc1)c1ccc(N2CCC(Cc3ccccc3)CC2)c([N+](=O)[O-])c1` (centres undefined), the Potency is reported as “inactive”. In the case of `COCCn1nnnc1CN(CCc1ccccc1)Cc1cc2ccc(C)cc2[nH]c1=O`, the Potency is reported as “inactive”. For `Cc1c2c(=O)n(-c3nc4ccccc4s3)nc-2cc(O)n1Cc1ccccc1`, the Potency was “inactive”.
